Data taken from the supplement of paper PMC9446081.
Screen size: about 39,000 compounds; about 220 (0.56%) showed activity. Some of the results follow.

Test system: Escherichia coli K-12 BW25113
Experiment: relative growth (OD600 normalised to plate interquartile mean) (fraction); higher = less growth inhibition, active = 0.2 or less
Details: 50 µM; LB; incubation time: overnight (16-24 h)
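Further: static incubation at 37 °C against the wild-type strain, values averaged over two biological replicates.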

Question: `C[C@@H]1CN([C@H](C)CO)C(=O)c2cc(NC(=O)c3ccncc3)ccc2O[C@@H](C)CCCCO[C@H]1CN(C)C(=O)Nc1ccc(C(F)(F)F)cc1` was tested. Which relative growth did it give?
Answer: inactive: 0.899

Question: `Cc1noc(C)c1NC(=O)N(C)C[C@@H]1Oc2ccc(NC(=O)c3ccncc3)cc2C(=O)N([C@H](C)CO)C[C@@H]1C` was tested. Which relative growth did it give?
Answer: inactive: 0.979

Question: Which relative growth does the source give for `O=C(C[C@@H]1CC[C@H]2[C@@H](COC[C@@H](O)CN2C(=O)c2cccnc2)O1)NCC1CC1` here?
Answer: inactive: 0.991

Question: For `C[C@@H]1CCCCO[C@H](CN(C)Cc2ccncc2)[C@@H](C)CN([C@@H](C)CO)C(=O)c2cc(NC(=O)NC3CCCCC3)ccc2O1`, which relative growth is on record?
Answer: inactive: 1.02

Question: How did the relative growth turn out when `C[C@H](CO)N1C[C@H](C)[C@H](CN(C)S(=O)(=O)c2ccc(Cl)cc2)Oc2ccc(N(C)C)cc2C1=O` was run?
Answer: inactive: 0.996

Question: With `Cc1noc(C)c1S(=O)(=O)Nc1ccc2c(c1)C(=O)N([C@H](C)CO)C[C@@H](C)[C@@H](CN(C)Cc1ccc(-c3ccccc3)cc1)O2` as the compound, how does the relative growth read?
Answer: inactive: 1

Question: With `C[C@@H]1CCCCO[C@@H](CN(C)C(=O)C2CCCCC2)[C@H](C)CN([C@@H](C)CO)C(=O)c2cc(NS(=O)(=O)c3ccc(Cl)cc3)ccc2O1` as the compound, how does the relative growth read?
Answer: inactive: 1

Question: How did the relative growth turn out when `CCS(=O)(=O)Nc1ccc2c(c1)C(=O)N(C)[C@H]1CC[C@@H](CC(=O)NCCOC)O[C@@H]1CO2` was run?
Answer: inactive: 1

Question: `C[C@H]1CN([C@@H](C)CO)C(=O)Cc2cc(NC(=O)Nc3ccc(F)cc3)ccc2O[C@@H]1CN(C)S(=O)(=O)c1cn(C)cn1` was tested. Which relative growth did it give?
Answer: inactive: 0.962

Question: `CC(C)Oc1ccccc1OCc1cnnn1CC(=O)NS(=O)(=O)c1ccccc1OC(F)(F)F` was tested. Which relative growth did it give?
Answer: inactive: 1

Question: With `N[C@H](C(=O)O)[C@@H](O)C(=O)O` as the compound, how does the relative growth read?
Answer: inactive: 1.04

Question: For `C=CCn1cnc2c1c(=O)[nH]c(=O)n2C`, which relative growth is on record?
Answer: inactive: 0.982

Question: Which relative growth does the source give for `COc1ccc(CN(C)C[C@H]2OCCCC[C@H](C)Oc3ccc(NS(=O)(=O)c4ccc(Cl)cc4)cc3C(=O)N([C@@H](C)CO)C[C@H]2C)cc1` here?
Answer: inactive: 0.961

Question: How did the relative growth turn out when `C[C@H]1CN([C@@H](C)CO)C(=O)c2cc(C#Cc3ccccc3F)cnc2O[C@H]1CN(C)S(=O)(=O)c1ccccc1F` was run?
Answer: inactive: 1.05

Question: How did the relative growth turn out when `O=C(C[C@@H]1CC[C@H](NS(=O)(=O)c2ccc(F)cc2)[C@@H](CO)O1)NCc1ccc(Cl)c(Cl)c1` was run?
Answer: inactive: 0.963

Question: `COc1ccc(-c2ccc3n(c2=O)C[C@H]2[C@H](CO)[C@@H](C(=O)NCC4CC4)[C@@H]3N2S(C)(=O)=O)cc1` was tested. Which relative growth did it give?
Answer: inactive: 1.01

Question: With `NCC[C@H]1CC[C@H](NC(=O)Cc2ccncc2)[C@@H](CO)O1` as the compound, how does the relative growth read?
Answer: inactive: 0.99

Question: With `C[C@@H]1CCCCO[C@H](CN(C)S(=O)(=O)c2ccc(F)cc2)[C@H](C)CN([C@H](C)CO)C(=O)c2cc(NC(=O)Nc3cccc4ccccc34)ccc2O1` as the compound, how does the relative growth read?
Answer: inactive: 1.03

Question: Which relative growth does the source give for `C[C@@H]1CN([C@@H](C)CO)C(=O)c2cccc(NC(=O)c3ccc(-c4nccs4)cc3)c2O[C@@H]1CN(C)Cc1ccccc1` here?
Answer: inactive: 1.05

Question: `COCC(=O)N(C)C[C@@H]1Oc2cc(C#Cc3cccnc3)ccc2S(=O)(=O)N([C@H](C)CO)C[C@H]1C` was tested. Which relative growth did it give?
Answer: inactive: 1.01

Question: How did the relative growth turn out when `Cc1cc(=O)n2ncnc2n1CC(=O)NN` was run?
Answer: inactive: 1.02

Question: For `COc1ccc(S(=O)(=O)Nc2ccc3c(c2)C(=O)N([C@@H](C)CO)C[C@@H](C)[C@H](CN(C)C(=O)Nc2ccc(C(F)(F)F)cc2)OCCCC[C@H](C)O3)cc1`, which relative growth is on record?
Answer: inactive: 1.04

Question: `CCS(=O)(=O)Nc1ccc2c(c1)C(=O)N(C)C[C@@H](OC)[C@H](C)CN(Cc1cccnc1)[C@H](C)CO2` was tested. Which relative growth did it give?
Answer: inactive: 1.02

Question: Which relative growth does the source give for `COc1ccc(S(=O)(=O)Nc2ccc3c(c2)C(=O)N([C@H](C)CO)C[C@H](C)[C@H](CN(C)C(=O)Nc2ccc4c(c2)OCO4)OCCCC[C@@H](C)O3)cc1` here?
Answer: inactive: 0.996

Question: With `C[C@H]1CN([C@@H](C)CO)C(=O)c2cccc(NC(=O)NC3CCCCC3)c2O[C@@H]1CN(C)Cc1ccc(Cl)c(Cl)c1` as the compound, how does the relative growth read?
Answer: inactive: 0.935

Question: How did the relative growth turn out when `COc1ccc(NC(=O)Nc2ccc3c(c2)C(=O)N([C@H](C)CO)C[C@@H](C)[C@@H](CN(C)S(=O)(=O)c2ccccc2)OCCCC[C@H](C)O3)cc1` was run?
Answer: inactive: 1.02

Question: With `COCCOC(=O)N1C(=O)[C@@]2(c3cc(C#Cc4ccc(OC)cc4)ccc31)[C@H](c1ccc(O)cc1)N1[C@H](c3ccccc3)[C@H](c3ccccc3)OC(=O)[C@H]1[C@@H]2C(=O)NC[C@H](O)c1ccccc1` as the compound, how does the relative growth read?
Answer: inactive: 1.04

Question: With `NC(=O)CN1CCOCC1` as the compound, how does the relative growth read?
Answer: inactive: 0.998

Question: `CC(=O)CCC=C(C)CCC=C(C)CCC=C(C)CCC=C(C)C` was tested. Which relative growth did it give?
Answer: inactive: 0.937

Question: Which relative growth does the source give for `COCCOC(=O)N1C(=O)[C@@]2(c3cc(C#Cc4ccc(OC)cc4)ccc31)[C@H](c1ccc(O)cc1)N1[C@H](c3ccccc3)[C@H](c3ccccc3)OC(=O)[C@H]1[C@@H]2C(N)=O` here?
Answer: inactive: 0.999

Question: With `CN1CCN(C(=O)C[C@H]2CC[C@@H]3[C@H](COc4ccc(NC(=O)c5cscn5)cc4C(=O)N3C)O2)CC1` as the compound, how does the relative growth read?
Answer: inactive: 0.964

Question: How did the relative growth turn out when `COCC(=O)N1C[C@@H](C)[C@@H](OC)CN(C)C(=O)c2ccc(NC(=O)c3ccc(OC)cc3)cc2OC[C@H]1C` was run?
Answer: inactive: 0.986

Question: How did the relative growth turn out when `Cc1ccc(S(=O)(=O)N(C)C[C@H]2OCCCC[C@H](C)Oc3ccc(NC(=O)Nc4c(C)noc4C)cc3C(=O)N([C@@H](C)CO)C[C@@H]2C)cc1` was run?
Answer: inactive: 0.959

Question: How did the relative growth turn out when `O=C(Cc1ccccn1)NCC[C@@H]1CC[C@@H](NC(=O)CN2CCOCC2)[C@H](CO)O1` was run?
Answer: inactive: 1

Question: With `C[C@@H]1CCCCO[C@@H](CN(C)C(=O)Nc2ccc(C(F)(F)F)cc2)[C@@H](C)CN([C@H](C)CO)C(=O)c2cc(NC(=O)Cc3ccccc3)ccc2O1` as the compound, how does the relative growth read?
Answer: inactive: 1

Question: `CC(=O)N(C)C[C@H]1Oc2ncc(C#C[C@@H](C)O)cc2C(=O)N([C@H](C)CO)C[C@H]1C` was tested. Which relative growth did it give?
Answer: inactive: 0.998

Question: With `C[C@@H]1CCCCO[C@H](CN(C)C(=O)C2CCCCC2)[C@H](C)CN([C@H](C)CO)C(=O)c2cc(NC(=O)Cc3ccccc3)ccc2O1` as the compound, how does the relative growth read?
Answer: inactive: 1.04

Question: How did the relative growth turn out when `CC(C)NC(=O)N[C@@H]1C=C[C@@H](CC(=O)NCCCN(C)C)O[C@@H]1CO` was run?
Answer: inactive: 1.06

Question: With `C[C@H]1CN([C@@H](C)CO)C(=O)c2cc(NC(=O)CCCN(C)C)ccc2O[C@H]1CN(C)S(=O)(=O)c1cccs1` as the compound, how does the relative growth read?
Answer: inactive: 1

Question: Which relative growth does the source give for `C[C@@H]1CCCCO[C@H](CN(C)C(=O)Nc2ccc(F)cc2)[C@H](C)CN([C@@H](C)CO)C(=O)c2cc(NC(=O)Nc3ccc(C(F)(F)F)cc3)ccc2O1` here?
Answer: inactive: 1

Question: With `C[C@@H]1CCCCO[C@@H](CN(C)C(=O)CCC(F)(F)F)[C@H](C)CN([C@@H](C)CO)C(=O)c2cc(NC(=O)C3CCCCC3)ccc2O1` as the compound, how does the relative growth read?
Answer: inactive: 0.98

Question: Which relative growth does the source give for `C[C@H](CO)N1C[C@H](C)[C@H](CN(C)C)Oc2ccc(NS(C)(=O)=O)cc2CC1=O` here?
Answer: inactive: 0.967

Question: `COc1ccc2c3c([nH]c2c1)[C@@H](CO)N(C[C@]13CCN(CC1)Cc1ccc(cc1)F)C(=O)Nc1ccc(cc1)F` was tested. Which relative growth did it give?
Answer: inactive: 1.01

Question: How did the relative growth turn out when `CCO[C@@H]1OC(C(=O)N2CCN(Cc3ccc4c(c3)OCO4)CC2)=C[C@H](c2ccc(Br)cc2)[C@H]1CCCOC(=O)NCCCCCC(=O)NO` was run?
Answer: inactive: 0.96

Question: `C[C@@H]1CN([C@H](C)CO)C(=O)Cc2cc(NC(=O)Nc3ccc(C(F)(F)F)cc3)ccc2O[C@@H]1CN(C)Cc1ccc(C(=O)O)cc1` was tested. Which relative growth did it give?
Answer: inactive: 0.971

Question: Which relative growth does the source give for `Cc1ccc(S(=O)(=O)N(C)C[C@@H]2Oc3c(NC(=O)Nc4ccc(C(F)(F)F)cc4)cccc3C(=O)N([C@@H](C)CO)C[C@@H]2C)cc1` here?
Answer: inactive: 0.825

Question: With `C[C@H]1CCCCO[C@@H](CN(C)Cc2ccc(C(F)(F)F)cc2)[C@@H](C)CN([C@@H](C)CO)C(=O)c2cc(NC(=O)CCC(F)(F)F)ccc2O1` as the compound, how does the relative growth read?
Answer: inactive: 0.998

Question: How did the relative growth turn out when `O=S1(=O)C[C@@H]2NC(=S)N[C@@H]2C1` was run?
Answer: inactive: 0.971

Question: Which relative growth does the source give for `CCCNC(=O)c1cc2c(c(-c3cccc(-c4ccc(F)cc4)c3)n1)[C@@H](CCO)N([S@](=O)C(C)(C)C)C2` here?
Answer: inactive: 0.996

Question: For `COc1ccc(S(=O)(=O)Nc2ccc3c(c2)C(=O)N([C@H](C)CO)C[C@H](C)[C@@H](CN(C)C(=O)c2ccccc2)OCCCC[C@H](C)O3)cc1`, which relative growth is on record?
Answer: inactive: 1

Question: How did the relative growth turn out when `Cc1ccc(S(=O)(=O)N[C@@H]2CC[C@@H](CC(=O)N3CCC(Cc4ccccc4)CC3)O[C@@H]2CO)cc1` was run?
Answer: inactive: 0.998

Question: `Cc1noc(C)c1S(=O)(=O)N(C)C[C@H]1Oc2ccc(NC(=O)Cn3cnnn3)cc2C(=O)N([C@@H](C)CO)C[C@H]1C` was tested. Which relative growth did it give?
Answer: inactive: 1.01

Question: With `Cc1noc(C)c1-c1ccc(N)cc1` as the compound, how does the relative growth read?
Answer: inactive: 0.918

Question: How did the relative growth turn out when `CC12CCC(CC1=O)C2(C)C` (centres undefined) was run?
Answer: inactive: 1.01

Question: With `Cc1ccc(S(=O)(=O)N(C)C[C@H]2Oc3c(NC(=O)c4cc(C)nn4C)cccc3C(=O)N([C@@H](C)CO)C[C@H]2C)cc1` as the compound, how does the relative growth read?
Answer: inactive: 0.989

Question: With `C[C@@]12CC[C@@H]3c4ccc(O)cc4C[C@H](CCCCCCCCC[S@@](=O)CCCC(F)(F)C(F)(F)F)[C@@H]3[C@@H]1CC[C@@H]2O` as the compound, how does the relative growth read?
Answer: inactive: 1.05

Question: With `CCOC(=O)C1=CC(OC(CC)CC)C(NC(C)=O)C(N)C1.O=P(O)(O)O` (centres undefined) as the compound, how does the relative growth read?
Answer: inactive: 0.95

Question: `C[C@H]1CCCCO[C@H](CN(C)S(=O)(=O)c2cn(C)cn2)[C@@H](C)CN([C@@H](C)CO)C(=O)c2cc(NS(=O)(=O)c3ccc(F)cc3)ccc2O1` was tested. Which relative growth did it give?
Answer: inactive: 0.988

Question: For `C[C@@H]1CN([C@H](C)CO)C(=O)Cc2cc(NC(=O)Nc3cccc4ccccc34)ccc2O[C@@H]1CN(C)C(=O)NC1CCCCC1`, which relative growth is on record?
Answer: inactive: 1.02
